Values of other authors as cited in PMC11784359 (Antimicrobial Agents and Chemotherapy, 2024).

Conditions: cited from earlier work

Structure (SMILES)	cardiovascular adverse effects (halted development)	cardiovascular liabilities (preclinical animal studies)
CC(C)(N)[C@H](NC(=O)c1ccc(C#CC#C[C@@H]2C[C@H]2CO)cc1)C(=O)NO [ACHN-975, reference compound]	dose-limiting cardiovascular adverse effects	–
C[C@@](O)(C(F)F)[C@H](NC(=O)c1ccc(C#CC#CC2CC2)cc1)C(=O)NO [LPC-233]	–	did not show the same liabilities
